Measured values: EPA's CvTdb concentration-time database
This continues a long series; more values of the same kind are listed elsewhere.

Assays:
[1] = system: Rat; assay: concentration in brain after dosing; conditions: 2 h; dosed: 2-Methyltetrahydrofuran; 10 mg/kg; oral; Male; F344
[2] = system: Rat; assay: concentration in brain after dosing; conditions: 20 min; dosed: 2-Methyltetrahydrofuran; 400 mg/kg; oral; Female; Harlan Sprague Dawley
[3] = system: Rat; assay: concentration in brain after dosing; conditions: 2.5 h; dosed: 2-Methyltetrahydrofuran; 10 mg/kg; oral; Female; F344
[4] = system: Rat; assay: concentration in brain after dosing; conditions: 0.5 h; dosed: 2-Methyltetrahydrofuran; 10 mg/kg; iv; Male; F344
[5] = system: Rat; assay: concentration in brain after dosing; conditions: 0.25 h; dosed: 2-Methyltetrahydrofuran; 30 mg/kg; oral; Male; F344
[6] = system: Rat; assay: concentration in brain after dosing; conditions: 8 min; dosed: 2-Methyltetrahydrofuran; 30 mg/kg; oral; Male; F344
[7] = system: Rat; assay: concentration in brain after dosing; conditions: 20 min; dosed: 2-Methyltetrahydrofuran; 10 mg/kg; oral; Male; F344
[8] = system: Rat; assay: concentration in brain after dosing; conditions: 4 h; dosed: 2-Methyltetrahydrofuran; 100 mg/kg; oral; Female; Harlan Sprague Dawley
[9] = system: Rat; assay: concentration in brain after dosing; conditions: 4 min; dosed: 2-Methyltetrahydrofuran; 10 mg/kg; oral; Female; F344
[10] = system: Rat; assay: concentration in brain after dosing; conditions: 10 min; dosed: 2-Methyltetrahydrofuran; 30 mg/kg; oral; Female; F344
[11] = system: Rat; assay: concentration in brain after dosing; conditions: 10 min; dosed: 2-Methyltetrahydrofuran; 10 mg/kg; oral; Female; F344
[12] = system: Rat; assay: concentration in plasma after dosing; conditions: 2 min; dosed: 2-Methyltetrahydrofuran; 10 mg/kg; iv; Male; F344
[13] = system: Rat; assay: concentration in plasma after dosing; conditions: 10 min; dosed: 2-Methyltetrahydrofuran; 30 mg/kg; oral; Male; F344
[14] = system: Rat; assay: concentration in plasma after dosing; conditions: 20 min; dosed: 2-Methyltetrahydrofuran; 10 mg/kg; oral; Female; F344
[15] = system: Rat; assay: concentration in plasma after dosing; conditions: 4 min; dosed: 2-Methyltetrahydrofuran; 30 mg/kg; oral; Female; F344
[16] = system: Rat; assay: concentration in plasma after dosing; conditions: 1.5 h; dosed: 2-Methyltetrahydrofuran; 10 mg/kg; oral; Male; F344
[17] = system: Rat; assay: concentration in plasma after dosing; conditions: 1.5 h; dosed: 2-Methyltetrahydrofuran; 10 mg/kg; iv; Male; F344
[18] = system: Rat; assay: concentration in plasma after dosing; conditions: 4 h; dosed: 2-Methyltetrahydrofuran; 400 mg/kg; oral; Female; F344
[19] = system: Rat; assay: concentration in plasma after dosing; conditions: 0.75 h; dosed: 2-Methyltetrahydrofuran; 100 mg/kg; oral; Female; Harlan Sprague Dawley
[20] = system: Rat; assay: concentration in plasma after dosing; conditions: 8 min; dosed: 2-Methyltetrahydrofuran; 30 mg/kg; oral; Male; F344
[21] = system: Rat; assay: concentration in plasma after dosing; conditions: 0.25 h; dosed: 2-Methyltetrahydrofuran; 10 mg/kg; iv; Male; F344
[22] = system: Rat; assay: concentration in plasma after dosing; conditions: 20 min; dosed: 2-Methyltetrahydrofuran; 10 mg/kg; oral; Male; F344
[23] = system: Rat; assay: concentration in plasma after dosing; conditions: 4 min; dosed: 2-Methyltetrahydrofuran; 30 mg/kg; oral; Male; F344
[24] = system: Rat; assay: concentration in plasma after dosing; conditions: 8 h; dosed: 2-Methyltetrahydrofuran; 100 mg/kg; oral; Female; Harlan Sprague Dawley
[25] = system: Rat; assay: concentration in plasma after dosing; conditions: 0.5 h; dosed: Fluorotelomer alcohol 8+2; 24 mg/kg; oral; Male; Harlan Sprague Dawley
[26] = system: Rat; assay: concentration in plasma after dosing; conditions: dosed: Fluorotelomer alcohol 8+2, 48 mg/kg, oral, Male, Harlan Sprague Dawley
[27] = system: Rat; assay: concentration in plasma after dosing; conditions: 1 h; dosed: Fluorotelomer alcohol 8+2; 24 mg/kg; oral; Male; Harlan Sprague Dawley
[28] = system: Rat; assay: concentration in plasma after dosing; conditions: dosed: Formamide, 300 mg/kg, oral, Female, Harlan Sprague Dawley
[29] = system: Rat; assay: concentration in plasma after dosing; conditions: dosed: Formamide, 30 mg/kg, iv, Female, F344
[30] = system: Rat; assay: concentration in plasma after dosing; conditions: 2 h; dosed: Formamide; 90 mg/kg; iv; Male; Harlan Sprague Dawley
[31] = system: Rat; assay: concentration in plasma after dosing; conditions: dosed: Formamide, 90 mg/kg, iv, Male, Harlan Sprague Dawley
[32] = system: Rat; assay: concentration in plasma after dosing; conditions: dosed: Formamide, 36 mg/kg, oral, Male, Harlan Sprague Dawley
[33] = system: Rat; assay: concentration in plasma after dosing; conditions: dosed: Formamide, 30 mg/kg, iv, Female, F344; remark: listed apart in the source
[34] = system: Rat; assay: concentration in plasma after dosing; conditions: dosed: Formamide, 600 mg/kg, oral, Male, Harlan Sprague Dawley
[35] = system: Rat; assay: concentration in plasma after dosing; conditions: 40 min; dosed: Pyridine; 10 mg/kg; oral; Male; Harlan Sprague Dawley
[36] = system: Rat; assay: concentration in plasma after dosing; conditions: dosed: Pyridine, 5 mg/kg, oral, Female, F344
[37] = system: Rat; assay: concentration in plasma after dosing; conditions: 1 h; dosed: Pyridine; 200 mg/kg; oral; Female; Harlan Sprague Dawley
[38] = system: Rat; assay: concentration in plasma after dosing; conditions: dosed: Pyridine, 5 mg/kg, iv, Female, Harlan Sprague-Dawley

Question: With `CC1CCCO1` (configuration not stated) [2-Methyltetrahydrofuran] as the molecule, how does the concentration in brain [1] read?
Answer: Its concentration in brain is 0.0825 µg/g.

Question: And the concentration in brain [2]?
Answer: Its concentration in brain is 144 µg/g.

Question: What about the concentration in brain [3] of the same molecule?
Answer: Its concentration in brain is 0.0238 µg/g.

Question: And the concentration in brain [4]?
Answer: Its concentration in brain is 2.32 µg/g.

Question: What about the concentration in brain [5] of the same molecule?
Answer: Its concentration in brain is 16 µg/g.

Question: And the concentration in brain [6]?
Answer: Its concentration in brain is 15.8 µg/g.

Question: What about the concentration in brain [7] of the same molecule?
Answer: The concentration in brain was 3.24 µg/g.

Question: What about the concentration in brain [8] of the same molecule?
Answer: The concentration in brain was 10.6 µg/g.

Question: And the concentration in brain [9]?
Answer: The concentration in brain was 2.07 µg/g.

Question: What about the concentration in brain [10] of the same molecule?
Answer: The concentration in brain was 11.9 µg/g.

Question: What about the concentration in brain [11] of the same molecule?
Answer: Its concentration in brain is 4.13 µg/g.

Question: What about the concentration in plasma [12] of the same molecule?
Answer: The concentration in plasma was 18800 ng/mL.

Question: And the concentration in plasma [13]?
Answer: The concentration in plasma was 12600 ng/mL.

Question: What about the concentration in plasma [14] of the same molecule?
Answer: Its concentration in plasma is 2990 ng/mL.

Question: What about the concentration in plasma [15] of the same molecule?
Answer: Its concentration in plasma is 8790 ng/mL.

Question: And the concentration in plasma [16]?
Answer: Its concentration in plasma is 517 ng/mL.

Question: And the concentration in plasma [17]?
Answer: Its concentration in plasma is 941 ng/mL.

Question: What about the concentration in plasma [18] of the same molecule?
Answer: Its concentration in plasma is 130000 ng/mL.

Question: And the concentration in plasma [19]?
Answer: Its concentration in plasma is 40800 ng/mL.

Question: And the concentration in plasma [20]?
Answer: Its concentration in plasma is 9560 ng/mL.

Question: And the concentration in plasma [21]?
Answer: Its concentration in plasma is 6840 ng/mL.

Question: What about the concentration in plasma [22] of the same molecule?
Answer: The concentration in plasma was 2810 ng/mL.

Question: What about the concentration in plasma [23] of the same molecule?
Answer: Its concentration in plasma is 6380 ng/mL.

Question: What about the concentration in plasma [24] of the same molecule?
Answer: The concentration in plasma was 91.9 ng/mL.

Question: Which results are given for `OCCC(F)(F)C(F)(F)C(F)(F)C(F)(F)C(F)(F)C(F)(F)C(F)(F)C(F)(F)F` [Fluorotelomer alcohol 8+2]?
Answer: concentration in plasma [25]: 430 ng/mL; concentration in plasma ([26]; 0.75 h): 1040 ng/mL; concentration in plasma ([26]; 12 h): 85.3 ng/mL; concentration in plasma [27]: 361 ng/mL

Question: Which concentration in plasma ([28]; 10 min) does the source give for `NC=O` [Formamide] here?
Answer: The concentration in plasma was 3700 ng/mL.

Question: And the concentration in plasma ([28]; 20 h)?
Answer: The concentration in plasma was 4000 ng/mL.

Question: What about the concentration in plasma ([29]; 8 h) of the same molecule?
Answer: Its concentration in plasma is 24900 ng/mL.

Question: What about the concentration in plasma ([29]; 12 h) of the same molecule?
Answer: The concentration in plasma was 19100 ng/mL.

Question: What about the concentration in plasma [30] of the same molecule?
Answer: The concentration in plasma was 155000 ng/mL.

Question: What about the concentration in plasma ([31]; 0.25 h) of the same molecule?
Answer: Its concentration in plasma is 79700 ng/mL.

Question: And the concentration in plasma ([31]; 24 h)?
Answer: Its concentration in plasma is 35600 ng/mL.

Question: And the concentration in plasma ([32]; 0.5 h)?
Answer: The concentration in plasma was 34200 ng/mL.

Question: What about the concentration in plasma ([32]; 48 h) of the same molecule?
Answer: Its concentration in plasma is 7800 ng/mL.

Question: What about the concentration in plasma ([33]; 1 h) of the same molecule?
Answer: The concentration in plasma was 41600 ng/mL.

Question: And the concentration in plasma ([33]; 3 h)?
Answer: Its concentration in plasma is 32000 ng/mL.

Question: What about the concentration in plasma ([34]; 1.5 h) of the same molecule?
Answer: The concentration in plasma was 692000 ng/mL.

Question: And the concentration in plasma ([34]; 30 h)?
Answer: The concentration in plasma was 332000 ng/mL.

Question: Which results are given for `c1ccncc1` [Pyridine]?
Answer: concentration in plasma [35]: 4300 ng/mL; concentration in plasma ([36]; 0.5 h): 3040 ng/mL; concentration in plasma ([36]; 6 h): 1900 ng/mL; concentration in plasma [37]: 99700 ng/mL; concentration in plasma ([38]; 5 min): 6630 ng/mL; concentration in plasma ([38]; 8 h): 652 ng/mL
